# Measured values taken from PubChem BioAssay AID1346428 (National Center for Advancing Translational Sciences (NCATS), 2018).
# Several values for one entry are separate records, joined by “and”; a condition that tells them apart may be missing. Equal values may be shown once. Out of some 48,000 compounds screened, about 1,200 (2.5%) were called active. Not shown: some 2% with an inconclusive outcome.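 How the source made its calls: active means activation of at least 60% and not above a set upper limit (about 1 call in 100 departs from these limits); inconclusive means activation of 40% to 60%, or above that upper limit; inactive means activation under 40%.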 The list shows a part of the results.
# Target: Probable G-protein coupled receptor 32 (Homo sapiens) (UniProt O75388)
# UniProt O75388, sequence (O75388 whole entry, looked up): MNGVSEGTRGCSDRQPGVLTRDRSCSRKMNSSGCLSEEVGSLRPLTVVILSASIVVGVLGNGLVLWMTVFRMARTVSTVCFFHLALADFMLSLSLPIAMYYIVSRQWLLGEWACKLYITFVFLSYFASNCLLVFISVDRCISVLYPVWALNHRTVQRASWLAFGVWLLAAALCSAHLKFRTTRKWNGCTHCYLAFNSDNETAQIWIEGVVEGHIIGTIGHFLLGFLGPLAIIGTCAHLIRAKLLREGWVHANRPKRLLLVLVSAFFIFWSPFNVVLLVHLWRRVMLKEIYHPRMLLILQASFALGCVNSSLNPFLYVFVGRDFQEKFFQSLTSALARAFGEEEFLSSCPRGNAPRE
# Assay: qHTS for Agonists of Human Resolvin D1 Receptor DRV1; further: 0% is about no effect
# Details: CHO-K1 GPR32 beta-arrestin PathHunter luminescence, 90 min; at 76.9 µM; hits give high values; zero percent set by DMSO-only wells
# Procedure, shortened: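 Luminescent readout of beta-Gal complementation quantifies ligand-induced beta-arrestin association with GPR32 in CHO-K1 cells; 90 min compound incubation at 37 °C, detection 1 h at room temperature.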
row,SMILES,activation
1,CCOc1ccccc1Nc1nc2c(S(=O)(=O)c3ccc(C)cc3)nnn2c2ccsc12,inactive: -6.74%
2,CCOC(=O)c1c(-c2ccccc2)csc1NC(=O)c1nc(SCC)ncc1Cl,inactive: 20.5%
3,Cc1ccc(-c2nc3scc(CCNS(=O)(=O)c4ccc(Oc5ccccc5)cc4)n3n2)cc1,inactive: -4.68%
4,Cc1ccc2nc(CSc3nnc(NC(=O)c4ccc(C(C)(C)C)cc4)s3)cc(=O)n2c1,inactive: -2.2%
5,CC(=O)Nc1ccc(NC(=O)c2ncoc2-c2ccco2)cc1,inactive: -0.334%
6,CCOc1cc(/C=C(\C#N)C(=O)Nc2ccc(OC)cc2)ccc1OCc1cc(=O)n2nc(CC)sc2n1,inactive: 3.37%
7,CCc1cccc(C)c1NC(=O)CN1C(=O)c2cccc3cccc1c23,inactive: 17.1%
8,CCCCCNC(=O)C1CCC(Cn2c(=O)c3sccc3n(CC)c2=O)CC1 (centres undefined),inactive: -2.94%
9,COc1ccc(-c2ccnc3c2c(=O)n(C)c(=O)n3C)cc1OC,inactive: 0.618%
10,COCCCNC(=O)CCCN1C(=O)CCn2nc(-c3cn(C)c4ccccc34)cc21,inactive: -4.54%
11,Cc1ccc(C)c(N2CCN(CCCNc3ncnc4onc(-c5ccc(Cl)cc5)c34)CC2)c1,inactive: 11.1%
12,CCN(C(=O)C(NS(=O)(=O)c1cccc2nsnc12)c1ccccc1)c1ccccc1 (centres undefined),inactive: -24.3%
13,Cc1ccc(NC(=O)[C@H](CSCc2ccccc2)N2Cc3ccccc3C2=O)cc1,inactive: -3.04%
14,COc1ccc(OC)c(CNC(=O)CCS(=O)(=O)c2ccc3c(c2)oc(=O)n3C)c1,inactive: 2.88%
15,Cc1cc(Nc2ccc(C)c(Cl)c2)n2nc(-c3ccccc3)nc2n1,inactive: 2.24%
16,Cc1ccc(C(=O)N2c3nc(-c4ccco4)nn3C3(CCCCC3)[C@@H]3CCCC[C@@H]32)cc1,inactive: -29.9%
17,Cc1cc(C)c(NC(=O)CN2C(=O)c3cccnc3Oc3ccc(Cl)cc32)c(C)c1,inactive: -16%
18,CC1CCN(S(=O)(=O)c2cccc(C(=O)NC3CCS(=O)(=O)C3)c2)CC1 (centres undefined),inactive: -12.4%
19,Cc1csc2nc(-c3cccc(NC(=O)c4ccc(S(N)(=O)=O)cc4)c3)cn12,inactive: 27.3%
20,Cn1c(=O)c2c(-c3ccccc3)n3c(c2n(C)c1=O)C(c1cc(Cl)ccc1O)Nc1ccccc1-3 (centres undefined),inactive: 9.19%
21,O=C(CCNS(=O)(=O)c1cccc2nsnc12)Nc1ccc(F)cc1,inactive: -13.9%

row,SMILES,activation
1,Cc1ccc2cccc(NC(=O)c3ccc(-c4ccc(Cl)cc4Cl)o3)c2n1,inactive: 7.88%
2,COc1ccc(OC)c(CNC(=O)c2cc(=O)[nH]c3ccc(S(=O)(=O)N4CCCCC4C)cc23)c1 (centres undefined),inactive: -16%
3,COc1ccccc1/C=C(\C#N)c1nc(-c2cc3ccccc3oc2=O)cs1,inactive: 8.31%
4,CCC(=O)Nc1ccc(S(=O)(=O)NCc2cccn2Cc2cccc(C)c2)cc1,inactive: 42%
5,CCOc1ccc(-c2cc(C)n3nc(C(=O)Nc4cc(Cl)ccc4O)cc3n2)cc1,inactive: 13.9%
6,COc1cccc(NC(=O)Cn2c(=O)n(Cc3nc(-c4ccccc4)no3)c(=O)c3ccccc32)c1,inactive: -8.72%
7,O=C(NCCC1=CCCCC1)c1ccc2c(c1)ncn2-c1cccc(Cl)c1,inactive: -10.1%
8,CCc1ccccc1NC(=O)CSc1ncc2c(n1)-c1ccccc1N(C)S2(=O)=O,inactive: 3.74%
9,CCOC(=O)N1CCC(NC(=O)c2cnn(-c3ccccc3)c2C2CCN(C(=O)OC(C)(C)C)CC2)CC1,inactive: 3.52%
10,COc1ccc(S(=O)(=O)NCCc2sc(-c3ccccc3)nc2C)cc1OC,inactive: 21.4%
11,Cc1ccc(/C=C/c2onc(C)c2S(=O)(=O)N2CCC(C(=O)NCc3ccco3)CC2)cc1,active: 88.3%
12,CCN(CC)c1ccc(NC(=O)CN2C(=O)c3cccnc3Oc3ccccc32)c(C)c1,inactive: -14.9%
13,Cc1cc(C)cc(NS(=O)(=O)c2ccc(-c3cc(C)no3)cc2)c1,inactive: -8.63%
14,Cc1ccc(CCNC(=O)c2ccc3c(c2)N(Cc2cc(C)ccc2C)C(=O)c2ccccc2S3=O)cc1 (centres undefined),inactive: -7.33%
15,COc1ccc2c(c1)NC(c1ccc(F)cc1)=NC(c1ccc(F)cc1)=N2,inactive: -30.8%
16,CCOC(=O)c1cccc(NS(=O)(=O)c2cc(Br)cc3c2N(C(=O)C2CC2)CC3)c1,inactive: -4.63%
17,COc1ccc(NC(=O)C2CCN(C3=NS(=O)(=O)C(c4ccc(C)c(C)c4)=C3C)CC2)cc1OC,inactive: 11.4%
18,COc1cccc(N2CCN(C(=O)CN3CCSc4ccc(S(=O)(=O)N(C)C)cc43)CC2)c1,inactive: -13.5%
19,COC(=O)c1ccc(OCC2c3cc(OC)c(OC)cc3CCN2C(=O)c2cccc(C)c2)cc1 (centres undefined),inactive: -9.63%
20,COc1ccc(CNC(=O)CCS(=O)(=O)c2cc(Br)cc3c2N(C(=O)C2CC2)CC3)cc1,inactive: -6.16%
21,CCCCN(Cc1ccccc1)S(=O)(=O)c1ccc2c(c1)CCN2C(=O)C1CCC1,inactive: -26.4%

row,SMILES,activation
1,COc1cccc(CNC(=O)Cn2c(=O)n3nc(-c4cccc(C)c4)nc3c3ccccc32)c1,inactive: 14.9%
2,COc1ccc(Nc2ncnc3onc(C)c23)cc1Cl,inactive: 6.26%
3,CCCSCCCNC(=O)C1CCCN(C(=O)c2cnn(-c3ccccc3)c2-n2cccc2)C1 (centres undefined),inactive: -9.71%
4,O=C(Cn1nc(Cc2cccnc2)c2ccccc2c1=O)N1CCN(c2ccc(F)cc2)CC1,inactive: -28.2%
5,O=C(O)C1CCCNC1 (centres undefined),inactive: 6.22%
6,Cc1ccc2occ(CC(=O)Nc3c(C)cccc3C)c2c1,inactive: -12.5%
7,CCCN(C(=O)c1ccc2c(=O)n3c(nc2c1)CCCCC3)c1cccc(Cl)c1,inactive: -2.89%
8,Cc1cc(C)cc(NCc2nnc3n2CCCCC3)c1,inactive: 13.4%
9,Cc1cccc(C)c1NC(=O)C(C)N (centres undefined),inactive: 0.321% and inactive: 4.98%
10,Cc1cccc(C)c1NC(=O)CCSCCc1ccccn1,inactive: 2.01%
11,COc1cn(CC(=O)Nc2ccc(C)cc2)c(CN2CCCCC2)cc1=O,inactive: -14.8%
12,COc1ccc(OCC(=O)N2CCN(C(=O)c3ccc(OC)c(OC)c3)CC2)cc1,inactive: -0.229%
13,COc1ccccc1CN1CCC(CNC(=O)c2cnn(-c3cccc(Cl)c3)c2C2CCN(C(=O)OC(C)(C)C)CC2)CC1,inactive: -14.8%
14,Cc1c(NS(=O)(=O)c2ccc(C(C)(C)C)cc2)c(=O)n(-c2ccccc2)n1C,inactive: -10.1%
15,O=C(CCNS(=O)(=O)c1ccc2c(c1)CCN2C(=O)C1CC1)Nc1ccc(Cl)cc1,inactive: 45.6%
16,CC(=O)N1CCc2cc(Br)cc(S(=O)(=O)CCC(=O)NCc3ccc(F)cc3)c21,inactive: -0.928%
17,Cc1cc2c(cc1S(=O)(=O)NCc1ccc(F)cc1)OCC(=O)N2,inactive: 16.4%
18,Cc1cccc(NC(=O)CN2C(=O)C(c3ccc(F)cc3)=NC23CCCCCC3)c1C,inactive: -8.45%
19,COc1ccc(NC(=O)CN2C(=O)COc3ccc(S(=O)(=O)NC4CCCC4)cc32)cc1OC,inactive: -9.37%
20,O=C(c1ccccc1)n1nc(-c2ccc(Cl)cc2)nc1NCc1ccco1,inactive: -2.93%
21,CCOC(=O)c1cc2c(=O)n3ccccc3nc2n(CCOC)c1=NC(=O)c1c(-c2c(F)cccc2Cl)noc1C,inactive: -2.15%

row,SMILES,activation
1,CSc1ccc(CCNC(=O)Cn2ncc3c([nH]c4ccccc43)c2=O)cc1,inactive: -10.6%
2,CCC(C(=O)NC(=O)NC(C)=O)c1ccccc1 (centres undefined),inactive: -4.77%
3,Cc1ccc(-n2ncc3c(NC4CCCCC4)ncnc32)cc1C,inactive: 3.7%
4,CN(Cc1ccccc1)C(=O)c1ccc(CSc2nc3cccnc3n2Cc2ccccc2)cc1,inactive: -3.39%
5,Cc1cccc(N2CCN(C(=O)Cc3c(C(=O)O)c(C)cn3C)CC2C)c1 (centres undefined),inactive: 1.42%
6,COc1ccc(N2CCN(C(=O)C3CCCN(S(=O)(=O)c4ccc5c(c4)oc(=O)n5C)C3)CC2)cc1 (centres undefined),inactive: 14.2%
7,CCC(=O)NCCc1sc2nc(-c3ccc(OC)cc3)nn2c1C,inactive: 31.6%
8,COc1ccccc1CCNC(=O)C1(c2cccs2)CCOCC1,inactive: 13.6%
9,CCc1cccc(NC(=O)CCn2nc(C)cc2C)c1,inactive: -10.1%
10,COC(=O)c1c(NC(=O)COc2ccc(C(C)C)cc2)sc2c1CCCC2,inactive: 28.5%
11,COc1ccc(C2CC(=O)Nc3c2c(C)nn3-c2nc(C)cc(C)n2)c(OC)c1OC (centres undefined),inactive: 4.94%
12,CCCCc1cc2ccccc2c(OCCN(C)C)n1,inactive: 30.1%
13,COc1ccc(OC)c(NC(=O)c2nnn(CC(=O)Nc3ccc(C(C)C)cc3)c2N)c1,inactive: -0.421%
14,COc1ccc(NC(=O)Cn2cnc3c(nc4n3CCCCC4)c2=O)cc1Cl,inactive: -13%
15,COc1ccc(CCNC(=O)c2ccc3nc(CCc4ccccc4)oc3c2)cc1OC,inactive: 5.66%
16,COc1ccc(NC(=O)Cn2c(=O)oc3cc(S(=O)(=O)N4CCCC4)ccc32)cc1OC,inactive: 9.83%
17,CCCS(=O)(=O)Nc1cccc(-c2cn3ccsc3n2)c1,inactive: 18.5%
18,Cc1cccc(CSc2nc3ccncc3n2CC(=O)N(C)C2CCCCC2)c1,inactive: -7.25%
19,Cc1ccc(NC(=O)c2ccc(-c3ccccc3)s2)cc1,inactive: -3.77%
20,Cc1ccc(N2C(=O)CSC23C(=O)N(CC(=O)NCCc2ccccc2)c2ccccc23)cc1 (centres undefined),inactive: -1.45%
21,CCC1CN(C(=O)N2CCC(C(=O)NCc3cccs3)CC2)c2ccccc2O1 (centres undefined),inactive: -6.92%
